Results reported in patent US20120172292A1, “METHOD FOR PROTECTION OF ANTIMICROBIAL AND ANTICANCER DRUGS FROM INACTIVATION BY NITRIC OXIDE” (NEW YORK UNIVERSITY, priority 2009, published 2012).

Tested on: HepG2 human hepatocytes
Experiment: AMSAcrine degradation by HepG2 cells (OD435 of supernatant)
Settings: 15 μM AMSAcrine, 4 mM L-NAME or 100 μM L-NIL 6 hours prior

SMILES | effect of NOS inhibitor on AMSAcrine degradation by hepatocytes
COC(=O)[C@@H](N)CCCNC(=N)N[N+](=O)[O-] [L-NAME, N G -nitro-L-arginine methyl ester] | greatly compromised
CC(=N)NCCCC[C@H](N)C(=O)O [L-NIL] | greatly compromised
